Measurements taken from patent publication KR20230171885A (dated 2023).

Legend:
[1] = molecular target: T1, 재조합 인간 TIGIT 단백질 (Acro Biosystems) (human, UniProt Q495A1 22-141); test: SPR, Biacore T200 multi-cycle kinetics, 25C; fusion protein captured on anti-human IgG CM5 chip, recombinant human TIGIT as analyte; 1:1 model
T1 construct: Bought recombinant protein; also called recombinant human TIGIT; TIGIT 항원
T1 sequence: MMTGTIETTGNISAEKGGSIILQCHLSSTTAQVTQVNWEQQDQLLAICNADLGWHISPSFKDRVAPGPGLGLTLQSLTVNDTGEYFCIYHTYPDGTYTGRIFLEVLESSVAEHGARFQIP

[2] = molecular target: T1, 재조합 인간 TIGIT 단백질 (Acro Biosystems); test: ELISA, plate coated with recombinant human TIGIT, anti-IgG-HRP detection, OD450

Row | Binder | Kd [1] [nM] | koff [1] [s⁻¹] | kon [1] [M⁻¹ s⁻¹] | binding result [2]
1 | 2B7-RS15 (2B7-RS15.0) (other, Antibody-cytokine fusion) heavy: EVQLQQSGPELVKPGASVKISCKTSGSTFTEYTMHWVKQSHGKSLEWIGGLNPNNGGTSYNQRFKDRATLTVDKSSSTAYMELRSLTSEDSAVYYCTRGTYYDYSFAYWGQGTLVTVSAASTKGPSVFPLAPSSKSTSGGTAALGCLVKDYFPEPVTVSWNSGALTSGVHTFPAVLQSSGLYSLSSVVTVPSSSLGTQTYICNVNHKPSNTKVDKRV[sequence of human IgG1 Fc not given] light: DIVMTQSHKFMSTSVGDRVSITCKASHYVSTAVAWYQQKPGQSPKLLIYSPSYRYTGVPDRFTGSGSGTDFTFTISSVQAEDLAVYYCHQHYSTPWTFGGGTKLEIKRTVAAPSVFIFPPSDEQLKSGTASVVCLLNNFYPREAKVQWKVDNALQSGNSQESVTEQDSKDSTYSLSSTLTLSKADYEKHKVYACEVTHQGLSSPVTKSFNRGECEAAAKEAAAKEAAAKITCPPPMSVEHADIWVKSYSLYSRERYICNSGFKRKAGTSSLTECVLNKATNVAHWTTPSLKCIRDPALVHQRPAPPSGGSGGGGSGGGSGGGGSLQ[sequence of about 120 residues not given] | 1.48 | 0.000386 | 261000 | 
2 | 3F8-RS15 (3F8-RS15.0) (other, Antibody-cytokine fusion) heavy: EVQLQQSGPELVKPGASMKISCKASGYSFTDYIMNWVKQSHGKNLEWIGLSIPYNGGTSYNQKFEGKATLTVDKSSSTAYMELLSLTSEDSAVYYCARGIKGYFAMDYWGQGTSVTVSSASTKGPSVFPLAPSSKSTSGGTAALGCLVKDYFPEPVTVSWNSGALTSGVHTFPAVLQSSGLYSLSSVVTVPSSSLGTQTYICNVNHKPSNTKVDKRV[sequence of human IgG1 Fc not given] light: DVVVTQTPLSLPVSFGDQVSISCRSSQSLVNSFGKTYLSWFLHKPGQSPQLIMYGVSNRFSGVPDRFSGSGSGTDFTLKISTIKPEDLGMYYCLQGTHQPWTFGGGTKLEIKRTVAAPSVFIFPPSDEQLKSGTASVVCLLNNFYPREAKVQWKVDNALQSGNSQESVTEQDSKDSTYSLSSTLTLSKADYEKHKVYACEVTHQGLSSPVTKSFNRGECEAAAKEAAAKEAAAKITCPPPMSVEHADIWVKSYSLYSRERYICNSGFKRKAGTSSLTECVLNKATNVAHWTTPSLKCIRDPALVHQRPAPPSGGSGGGGSGGGSGGGGSLQ[sequence of about 120 residues not given] | 1.14 | 0.000216 | 189000 | 
3 | 7A6RS15TL-2DL-0 (7A6-RS15.3; 7A6 VH3/Vk5-RS15.3) (other, Antibody-cytokine fusion) heavy: QVQLQESGPGLVKPSQTLSLTCTVTGYSITSDYAWNWIRQPPGKGLEWMGYISYSGSARYNPSLKSRVTISRDTSKNQFSLKLSSVTAEDTATYYCARKGYPAYFAYWGQGTLVTVSSASTKGPSVFPLAPSSKSTSGGTAALGCLVKDYFPEPVTVSWNSGALTSGVHTFPAVLQSSGLYSLSSVVTVPSSSLGTQTYICNVNHKPSNTKVDKRV[sequence of human IgG1 Fc not given] light: DIQMTQSPSSLSASVGDRVSITCKASQDVSTAVAWYQQKPGQAPRLLIYSASYRYTGVPDRFSGSGSGTDFTLTISSLQPEDFATYYCQHHYSTPYTFGQGTKLEIKRTVAAPSVFIFPPSDEQLKSGTASVVCLLNNFYPREAKVQWKVDNALQSGNSQESVTEQDSKDSTYSLSSTLTLSKADYEKHKVYACEVTHQGLSSPVTKSFNRGECEAAAKEAAAKEAAAKITCPPPMSVEHADIWVKSYSLYSRERYICNSGFKRKAGTSSLTECVLNKATNVAHWTTPSLKCIRDPALVHQRPAPPGSGGGGSGGGGSIQ[sequence of about 120 residues not given] |  |  |  | binds
4 | 7A6RS15TL-2DL-1 (7A6-RS15.2; 7A6 VH3/Vk5-RS15.2) (other, Antibody-cytokine fusion) heavy: QVQLQESGPGLVKPSQTLSLTCTVTGYSITSDYAWNWIRQPPGKGLEWMGYISYSGSARYNPSLKSRVTISRDTSKNQFSLKLSSVTAEDTATYYCARKGYPAYFAYWGQGTLVTVSSASTKGPSVFPLAPSSKSTSGGTAALGCLVKDYFPEPVTVSWNSGALTSGVHTFPAVLQSSGLYSLSSVVTVPSSSLGTQTYICNVNHKPSNTKVDKRV[sequence of human IgG1 Fc not given] light: DIQMTQSPSSLSASVGDRVSITCKASQDVSTAVAWYQQKPGQAPRLLIYSASYRYTGVPDRFSGSGSGTDFTLTISSLQPEDFATYYCQHHYSTPYTFGQGTKLEIKRTVAAPSVFIFPPSDEQLKSGTASVVCLLNNFYPREAKVQWKVDNALQSGNSQESVTEQDSKDSTYSLSSTLTLSKADYEKHKVYACEVTHQGLSSPVTKSFNRGECEAAAKEAAAKEAAAKITCPPPMSVEHADIWVKSYSLYSRERYICNSGFKRKAGTSSLTECVLNKATNVAHWTTPSLKCIRDPALVHQRPAPPGSGGGGSGGGGSLQ[sequence of about 120 residues not given] |  |  |  | binds
5 | 7A6RS15TL-2DL-2 (7A6-RS15.1; 7A6 VH3/Vk5-RS15.1) (other, Antibody-cytokine fusion) heavy: QVQLQESGPGLVKPSQTLSLTCTVTGYSITSDYAWNWIRQPPGKGLEWMGYISYSGSARYNPSLKSRVTISRDTSKNQFSLKLSSVTAEDTATYYCARKGYPAYFAYWGQGTLVTVSSASTKGPSVFPLAPSSKSTSGGTAALGCLVKDYFPEPVTVSWNSGALTSGVHTFPAVLQSSGLYSLSSVVTVPSSSLGTQTYICNVNHKPSNTKVDKRV[sequence of human IgG1 Fc not given] light: DIQMTQSPSSLSASVGDRVSITCKASQDVSTAVAWYQQKPGQAPRLLIYSASYRYTGVPDRFSGSGSGTDFTLTISSLQPEDFATYYCQHHYSTPYTFGQGTKLEIKRTVAAPSVFIFPPSDEQLKSGTASVVCLLNNFYPREAKVQWKVDNALQSGNSQESVTEQDSKDSTYSLSSTLTLSKADYEKHKVYACEVTHQGLSSPVTKSFNRGECEAAAKEAAAKEAAAKITCPPPMSVEHADIWVKSYSLYSRERYICNSGFKRKAGTSSLTECVLNKATNVAHWTTPSLKCIRDPALVHQRPAPPGGGGSGGGGSGGGGS[sequence of about 120 residues not given] |  |  |  | binds
6 | 7A6RS15TL-2DL-3 (7A6-RS15.4; 7A6 VH3/Vk5-RS15.4) (other, Antibody-cytokine fusion) heavy: QVQLQESGPGLVKPSQTLSLTCTVTGYSITSDYAWNWIRQPPGKGLEWMGYISYSGSARYNPSLKSRVTISRDTSKNQFSLKLSSVTAEDTATYYCARKGYPAYFAYWGQGTLVTVSSASTKGPSVFPLAPSSKSTSGGTAALGCLVKDYFPEPVTVSWNSGALTSGVHTFPAVLQSSGLYSLSSVVTVPSSSLGTQTYICNVNHKPSNTKVDKRV[sequence of human IgG1 Fc not given] light: DIQMTQSPSSLSASVGDRVSITCKASQDVSTAVAWYQQKPGQAPRLLIYSASYRYTGVPDRFSGSGSGTDFTLTISSLQPEDFATYYCQHHYSTPYTFGQGTKLEIKRTVAAPSVFIFPPSDEQLKSGTASVVCLLNNFYPREAKVQWKVDNALQSGNSQESVTEQDSKDSTYSLSSTLTLSKADYEKHKVYACEVTHQGLSSPVTKSFNRGECEAAAKEAAAKEAAAKITCPPPMSVEHADIWVKSYSLYSRERYICNSGFKRKAGTSSLTECVLNKATNVAHWTTPSLKCIRDPALVHQRPAPPSGGGGSGGGSGGGGGSGG[sequence of about 120 residues not given] |  |  |  | binds
7 | 7A6RS15TL-2DL-4 (7A6-RS15.5; 7A6 VH3/Vk5-RS15.5) (other, Antibody-cytokine fusion) heavy: QVQLQESGPGLVKPSQTLSLTCTVTGYSITSDYAWNWIRQPPGKGLEWMGYISYSGSARYNPSLKSRVTISRDTSKNQFSLKLSSVTAEDTATYYCARKGYPAYFAYWGQGTLVTVSSASTKGPSVFPLAPSSKSTSGGTAALGCLVKDYFPEPVTVSWNSGALTSGVHTFPAVLQSSGLYSLSSVVTVPSSSLGTQTYICNVNHKPSNTKVDKRV[sequence of human IgG1 Fc not given] light: DIQMTQSPSSLSASVGDRVSITCKASQDVSTAVAWYQQKPGQAPRLLIYSASYRYTGVPDRFSGSGSGTDFTLTISSLQPEDFATYYCQHHYSTPYTFGQGTKLEIKRTVAAPSVFIFPPSDEQLKSGTASVVCLLNNFYPREAKVQWKVDNALQSGNSQESVTEQDSKDSTYSLSSTLTLSKADYEKHKVYACEVTHQGLSSPVTKSFNRGECEAAAKEAAAKEAAAKITCPPPMSVEHADIWVKSYSLYSRERYICNSGFKRKAGTSSLTECVLNKATNVAHWTTPSLKCIRDPALVHQRPAPPSGGGGSGGGSGGGGGSGGGSG[sequence of about 120 residues not given] |  |  |  | binds
